Test results: article PMC4336329 (PLoS ONE, 2015)
About 14,000 (4.5%) of roughly 310,000 compounds showed an effect of 50% or more. Effects have a minus sign here. The list shows a part of the results.

target: human ether-à-go-go-related gene (hERG) potassium channel (human, UniProt Q12809); test: primary screen, population patch clamp on CHO cells stably expressing hERG
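Note: peak tail current of the secondary pulse compared with the same well before compound.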

human ether-à-go-go-related gene (hERG) potassium channel, sequence (Q12809 whole entry, looked up): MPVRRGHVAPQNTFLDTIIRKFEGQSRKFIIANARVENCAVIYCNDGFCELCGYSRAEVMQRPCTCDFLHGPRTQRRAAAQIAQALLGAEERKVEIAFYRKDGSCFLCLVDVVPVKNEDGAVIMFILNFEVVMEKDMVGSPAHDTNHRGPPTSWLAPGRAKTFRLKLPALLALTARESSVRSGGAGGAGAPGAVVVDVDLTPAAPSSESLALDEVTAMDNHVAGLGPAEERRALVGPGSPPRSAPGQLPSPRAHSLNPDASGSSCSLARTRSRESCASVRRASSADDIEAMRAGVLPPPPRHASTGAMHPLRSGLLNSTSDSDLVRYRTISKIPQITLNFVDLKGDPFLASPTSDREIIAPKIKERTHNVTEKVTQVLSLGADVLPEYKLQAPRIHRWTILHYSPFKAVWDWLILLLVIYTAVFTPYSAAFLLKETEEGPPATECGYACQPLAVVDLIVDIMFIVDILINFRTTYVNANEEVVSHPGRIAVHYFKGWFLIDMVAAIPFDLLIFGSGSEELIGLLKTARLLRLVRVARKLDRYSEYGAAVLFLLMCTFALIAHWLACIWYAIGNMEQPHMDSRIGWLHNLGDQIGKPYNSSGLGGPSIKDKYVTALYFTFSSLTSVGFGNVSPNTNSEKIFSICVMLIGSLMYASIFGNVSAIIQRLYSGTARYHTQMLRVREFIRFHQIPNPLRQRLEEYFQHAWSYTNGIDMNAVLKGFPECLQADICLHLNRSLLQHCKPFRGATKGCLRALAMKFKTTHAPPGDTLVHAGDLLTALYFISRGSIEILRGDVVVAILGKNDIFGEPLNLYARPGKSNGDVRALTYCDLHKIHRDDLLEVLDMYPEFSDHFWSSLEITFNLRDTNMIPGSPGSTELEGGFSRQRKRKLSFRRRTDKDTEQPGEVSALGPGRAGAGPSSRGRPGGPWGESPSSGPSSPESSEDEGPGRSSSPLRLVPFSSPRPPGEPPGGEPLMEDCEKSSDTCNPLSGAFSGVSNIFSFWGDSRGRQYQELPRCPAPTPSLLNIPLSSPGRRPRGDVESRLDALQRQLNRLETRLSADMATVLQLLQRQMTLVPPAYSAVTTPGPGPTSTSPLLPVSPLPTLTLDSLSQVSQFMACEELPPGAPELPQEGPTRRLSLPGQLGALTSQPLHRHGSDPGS

Row | SMILES | hERG current change (%, negative = inhibition) at 10uM [%]
1 | CC(OC(=O)C1CC(O)CN1S(=O)(=O)c1ccccc1[N+](=O)[O-])C(=O)N1CCCCC1 (centres unmarked) | -8.19
2 | Cc1cc2nc(-c3ccc(SCc4ccc(C(=O)O)cc4)nc3)[nH]c2cc1C | 20.6
3 | COc1ccc(C2C/C(=N\O)C(C)(C)O2)cc1 (centres unmarked) | -1.95
4 | COc1ccc(CCNS(=O)(=O)c2cn(C)cn2)cc1OC | 26.8
5 | Cc1ccc(NC(=O)CSc2nc3[nH]c(=O)cc(O)c3s2)c(Br)c1 | 12.2
6 | Cc1cc(C(=O)CSc2ccc(F)cc2)cc(C)c1OC(=S)N(C)C | -0.176
7 | CN1CCN(C(=O)CCC(=O)NCc2ccc(F)cc2)CC1 | 13.2
8 | COc1ccc(-c2nnn(CC(=O)NCc3cccs3)n2)cc1OC | 17.4
9 | COCC(=O)NCc1ccc2c(c1)OCO2 | -7.78
10 | C/C(=N\NC(=O)c1ccncc1)C12CC3CC(CC(C3)C1)C2 | 5.6
11 | COc1ccc(OC)c(NC(=O)Cn2cc(C(=O)c3ccco3)c3ccccc32)c1 | -15.4
12 | CCS(=O)(=O)N1CCN(C(C)CCc2ccccc2)CC1 (centres unmarked) | -11.7
13 | COc1ccc2cc(S(=O)(=O)c3ccccc3)c(=O)oc2c1 | -2.81
14 | COCCN(C(=O)c1ccc(N2CCCC2=O)cc1)c1c(N)n(CC(C)C)c(=O)[nH]c1=O | -0.184
15 | O=C(Nc1ccc(Br)cn1)c1ccc2ccccc2c1 | 26.8
16 | N#CC1=C(N)Oc2c(ccc3ccccc23)C1c1cccs1 (centres unmarked) | -3.81
17 | O=C(CN1CCN(C(=O)c2cccc(-n3cnnn3)c2)CC1)Nc1ccccc1Cl | -90.3
18 | CC(O)CNc1nc2ccccc2n1CC(=O)N1CCN(Cc2ccccc2)CC1 (centres unmarked) | -22.6
19 | COc1cc2ccccc2cc1C(=O)OCc1nc2ccsc2c(=O)[nH]1 | 4.6
20 | O=[N+]([O-])c1ccccc1COc1ccc(Cl)c2cccnc12 | 5.1
21 | CSc1cccc(NC(=O)c2ccccc2N(C)S(C)(=O)=O)c1 | -6.91
22 | Cc1cccc(NC(=O)CNC(=O)COC(=O)c2ccco2)c1C | 1.78

Row | SMILES | hERG current change (%, negative = inhibition) at 10uM [%]
23 | Cc1c(CCO)c(=O)[nH]n1S(=O)(=O)c1ccccc1 | 1.89
24 | COc1ccccc1C(=O)NCC(=O)OCC(=O)c1cccc2ccccc12 | 4.06
25 | CCOC(=O)c1sc2ncn(/N=C/c3ccc(O)c(OC)c3)c(=O)c2c1C | 27.9
26 | COCCn1nc2cc(C(=O)NCc3cc(C(F)(F)F)cc(C(F)(F)F)c3)ccc2c1OC | 21.8
27 | COC(=O)Nc1cc(C)n(-c2ccccc2)n1 | 8.38
28 | CC(C)(CNc1ccc([N+](=O)[O-])cc1Cl)N1CCOCC1 | -0.00342
29 | CCOc1ccc(-c2nnc(SCC(=O)N(CC)CC)n2N)cc1 | 5.1
30 | CCc1cccc(CC)c1NC(=S)N1CC2CC(C1)c1cccc(=O)n1C2 (centres unmarked) | 5.97
31 | NS(=O)(=O)c1ccc(CCNS(=O)(=O)c2ccc(Cl)cc2)cc1 | -16.3
32 | CC(C)CCNC(=O)c1c[nH]c2ccc(S(=O)(=O)N3CCOCC3)cc2c1=O | 13.6
33 | CCOc1ccc(S(=O)(=O)Nc2ccc(C(=O)NCC3CCCO3)cc2)cc1 (centres unmarked) | -37.4
34 | O=C1CCCN1c1ccc(S(=O)(=O)Oc2cccc(Cl)c2)cc1[N+](=O)[O-] | -26.6
35 | O=C(CCN1c2ccccc2Sc2ccccc21)Oc1ccccc1 | 18.3
36 | COc1ccccc1CNc1ncnc2c1cnn2-c1ccccc1 | -12.1
37 | COc1ccc(S(=O)(=O)N2CCN(S(=O)(=O)c3ccc4c(c3)OCCO4)CC2)cc1 | 13.2
38 | Cc1ccc(C(=O)COC(=O)c2cc(Cl)nc3ccccc23)cc1 | -0.141
39 | Cc1ccc(Cn2ncc3c(NCCCN(C)C)ncnc32)cc1 | -3.16
40 | CC(C)(C)NC(=O)NC(=O)COC(=O)CCC1CCCC1 | 10.3
41 | CC(C)C(=O)NCCc1nc(-c2ccc(Cl)cc2)no1 | 5.54
42 | O=C(c1ccccc1)N1N=C(C(F)(F)F)CC1(O)c1ccc(F)cc1 (centres unmarked) | -1.8
43 | CCOc1ccc(NC(=O)C2CCCN(C(=O)NCc3ccccc3)C2)cc1 (centres unmarked) | 5.02
44 | Cc1onc(-c2ccccc2)c1C(=O)NCCCc1ccccc1 | 6.47
